{"source": "PubChem BioAssay AID463173", "about": "(ICCB-Longwood Screening Facility, Harvard Medical School, 2010)", "note": "About 4,300 (8.3%) of roughly 52,000 compounds were called active. Rule as the data show it: active = survival mostly below about 52% (no sharp cut-off); inactive = mostly above about 56%. The list shows a part of the results.", "data": [{"system": "DeltatarO mutant", "assay": "growth inhibition of S. aureus wild type versus tarO mutant, primary screen, teichoic acid synthesis inhibitors, RN4220, OD600 (AID 463173)", "conditions": "OD600, 18 h, hits give low values, screened at 18.75 µg/mL (by protocol)", "values": [{"smiles": "Cc1ccc(-c2nc(-c3cc4cccc(OCc5cccc(F)c5)c4oc3=O)no2)cc1", "survival": "inactive: 46%"}, {"smiles": "COc1cccc(NC(=O)c2sc3nc(C)c(C(=O)Nc4ccc(C)cc4C)c(-c4cccs4)c3c2N)c1", "survival": "inactive: 122%"}, {"smiles": "Cn1c(=N)n(CC(=O)c2ccc(-c3ccccc3)cc2)c2ccccc21", "survival": "inactive: 106%"}, {"smiles": "COc1ccc(CC(=O)Nc2cc(-c3nc4cccnc4s3)ccc2C)cc1", "survival": "active: 41%"}, {"smiles": "CCOc1ccc(-n2c(=O)c3c4c(sc3n(CC(=O)NC(C)CC)c2=O)CCC4)cc1", "note": "(stereo not drawn)", "survival": "inactive: 142%"}, {"smiles": "O=S(=O)(c1ccc(Cl)cc1)c1nnn2c1nc(NCc1cccs1)c1sccc12", "survival": "inactive: 43%"}, {"smiles": "CCC(=O)Nc1ccc2nc(SCc3ccccc3)sc2c1", "survival": "inactive: 76%"}, {"smiles": "COc1ccc(C)cc1NC(=O)CSc1nc(=O)[nH]c2c1CCCC2", "survival": "inactive: 120%"}, {"smiles": "CCC(CC)C(=O)N1CCc2cc(OC)c(OC)cc2C1COc1ccc(C(=O)OC)cc1", "note": "(stereo not drawn)", "survival": "inactive: 73%"}, {"smiles": "CCCn1c(=O)c(C(=O)Nc2nccs2)c(O)c2ccccc21", "survival": "inactive: 99%"}, {"smiles": "O=C(CSc1cn(CCNC(=O)c2ccccc2F)c2ccccc12)Nc1ccc(F)cc1", "survival": "inactive: 65%"}, {"smiles": "COc1cccc(N2C(=O)CSC23C(=O)N(CC(=O)Nc2cccc(Cl)c2)c2ccccc23)c1", "note": "(stereo not drawn)", "survival": "inactive: 101%"}, {"smiles": "COc1cc(CN(C(=O)COc2ccccc2Cl)c2ccccn2)cc(OC)c1OC", "survival": "inactive: 72%"}, {"smiles": "CCn1c(C)c(C)c2cc(C(=O)N3CCN(c4cccc(C)c4C)CC3)ccc21", "survival": "inactive: 94%"}, {"smiles": "CC1(C)OC(c2ccncc2)OC1(C)C", "survival": "inactive: 93%"}, {"smiles": "O=C(c1ccc2c(c1)CCCC2)N1CCN(c2nc3ccc(F)cc3s2)CC1", "survival": "inactive: 75%"}, {"smiles": "CCc1ccc(S(=O)(=O)NCc2nc3cccnc3n2Cc2ccccc2Cl)cc1", "survival": "inactive: 94%"}, {"smiles": "CCn1c(COc2ccc(C)cc2)nnc1SCC(=O)N1CCCc2ccccc21", "survival": "inactive: 101%"}, {"smiles": "CCCOc1ccc(CNC(=O)Cn2cc3c(n2)-c2c(oc(C(=O)N4CCOCC4)c2C)CC3)cc1", "survival": "inactive: 76%"}, {"smiles": "COc1cccc(-n2c(SCC(=O)N3CCCc4ccccc43)nc3c([nH]c4ccccc43)c2=O)c1", "survival": "inactive: 102%"}, {"smiles": "O=C(CCSCc1cccc(F)c1)NCc1ccccc1", "survival": "inactive: 68%"}, {"smiles": "CCOc1ccc2nc(SCC(=O)N(C)C3CCCCC3)c(C#N)cc2c1", "survival": "inactive: 89%"}, {"smiles": "COc1ccc(Cl)cc1NC(=O)Cn1c(=O)n(CCCC(=O)NCCc2ccc(OC)c(OC)c2)c(=O)c2ccccc21", "survival": "inactive: 71%"}, {"smiles": "COc1ccc(-c2nnc(Nc3ccc(OC)c(C(N)=O)c3)c3ccccc23)cc1", "survival": "active: 41%"}, {"smiles": "CCS(=O)(=O)c1nc(S(=O)(=O)c2ccc(C)cc2)c(NC(C)c2ccccc2)s1", "note": "(stereo not drawn)", "survival": "inactive: 103%"}, {"smiles": "CCOc1ccc(-n2cc(-c3ccccc3)c3c(N4CCC(C)CC4)ncnc32)cc1", "survival": "inactive: 90%"}, {"smiles": "Cc1ccc(S(=O)(=O)c2nc(-c3ccc(F)cc3)oc2SCC(=O)c2ccccc2)cc1", "survival": "active: 47%"}, {"smiles": "CCc1ccc2oc(-c3cccc(NC(=O)C(C)(C)Oc4ccc(Br)cc4)c3)nc2c1", "survival": "active: 36%"}, {"smiles": "Cc1cc(C)cc(Nc2ncnc3onc(-c4ccc(F)cc4)c23)c1", "survival": "inactive: 84%"}, {"smiles": "O=C(NCc1ccccc1)NC1(C(=O)NCC2CCCO2)CCCCC1", "note": "(stereo not drawn)", "survival": "inactive: 70%"}, {"smiles": "Cc1ccc(Nc2c(-c3ccc(C)cc3)nc3ccc(C)cn23)cc1", "survival": "inactive: 117%"}, {"smiles": "CCc1ccccc1NC(=O)N1CCc2cc(OC)c(OC)cc2C1CC(=O)OC", "note": "(stereo not drawn)", "survival": "inactive: 117%"}, {"smiles": "COC(=O)C1=NNC2C(=O)N(c3cc(C)cc(C)c3)C(=O)C12", "note": "(stereo not drawn)", "survival": "inactive: 69%"}, {"smiles": "Cc1ccc(C)c(Nc2nc3c(S(=O)(=O)c4ccc(Br)cc4)nnn3c3ccsc23)c1", "survival": "inactive: 52%"}, {"smiles": "Cc1ccc(NC(=O)Cn2c(=O)n(CCCS(=O)(=O)C3CCCCC3)c(=O)c3ccccc32)cc1F", "survival": "inactive: 83%"}, {"smiles": "CCOc1ccc(CNCc2c(C(=O)O)n(Cc3ccc(OC)cc3)c3ccccc23)cc1", "survival": "inactive: 82%"}, {"smiles": "Cc1ccc(N2CC(c3nnc(Cc4ccccc4Cl)o3)CC2=O)cc1", "note": "(stereo not drawn)", "survival": "inactive: 70%"}, {"smiles": "CNC(=O)Nc1ccc2nc(C)sc2c1", "survival": "inactive: 84%"}, {"smiles": "COc1ccc(-c2nc3c(C#N)c[nH]n3c2NC2CCCC2)cc1", "survival": "inactive: 56%"}, {"smiles": "COc1ccccc1Cc1nc2ccccc2nc1SCC(=O)Nc1ccccc1C(F)(F)F", "survival": "inactive: 83%"}, {"smiles": "COc1ccc(S(=O)(=O)n2nc(-c3ccco3)nc2NCc2ccc(OC)c(OC)c2)cc1", "survival": "inactive: 55%"}, {"smiles": "C/C=C/NC(=O)c1nc2c(nnn2Cc2ccc(C)cc2)c(=O)[nH]1", "survival": "inactive: 98%"}, {"smiles": "Cn1c(=O)c2c(-c3ccccc3Cl)n(Cc3ccc(Cl)cc3)cc2n(C)c1=O", "survival": "inactive: 60%"}, {"smiles": "Cc1cccc(N2CCN(C(=O)CCC(=O)NNc3nc4ccccc4c4nc(C)nn34)CC2C)c1", "note": "(stereo not drawn)", "survival": "inactive: 72%"}, {"smiles": "CC1NC(=O)NC2NC(=O)NC(C)C12", "note": "(stereo not drawn)", "survival": "inactive: 112%"}, {"smiles": "CCc1ccccc1NC(=O)CN1C(=O)COc2ccc(S(=O)(=O)Nc3ccccc3)cc21", "survival": "inactive: 72%"}, {"smiles": "COc1ccccc1CNS(=O)(=O)c1ccc2c(c1)NC(=O)CC(=O)N2", "survival": "inactive: 89%"}, {"smiles": "Cc1ccc(-n2nc(C)c3c(C(=O)NCc4ccccc4)cc(C4CC4)nc32)cc1", "survival": "inactive: 115%"}, {"smiles": "COc1ccccc1Nc1nn2c(=O)c3ccc(C(=O)N4CCCC(C)C4)cc3nc2s1", "note": "(stereo not drawn)", "survival": "inactive: 61%"}, {"smiles": "Cc1ccc(S(=O)(=O)NCc2nc(-c3cccc(C)c3)no2)cc1", "survival": "inactive: 100%"}, {"smiles": "COc1ccc(C2CC(=O)N(Cc3cccc(F)c3)c3ccccc3S2)cc1", "note": "(stereo not drawn)", "survival": "active: 47%"}, {"smiles": "COc1ccc(Nc2nc(N)c3cc(OC)c(OC)cc3n2)cc1", "survival": "inactive: 87%"}, {"smiles": "CC1CCc2c(sc(NC(=O)C3c4ccccc4Oc4ccccc43)c2C(=O)OC(C)C)C1", "note": "(stereo not drawn)", "survival": "active: 47%"}, {"smiles": "CCOC(=O)c1scc(-c2ccccc2)c1S(=O)(=O)Nc1cc(Cl)c(OC)cc1OC", "survival": "inactive: 88%"}, {"smiles": "NS(=O)(=O)c1ccc(NC(=S)NC(=O)c2cccnc2)cc1", "survival": "inactive: 91%"}, {"smiles": "COc1cccc(CNC(=O)c2nn(-c3ccc(C)cc3)c(=O)c3c2c2ccccc2n3C)c1", "survival": "inactive: 120%"}, {"smiles": "COC(=O)c1ccc(CSc2nc3c([nH]c4ccccc43)c(=O)n2-c2ccc(OC)cc2)o1", "survival": "inactive: 115%"}, {"smiles": "COc1ccc(CNC(=O)c2c3c(nc4ccccc24)C(=O)N(C2CCCCC2)C3)cc1", "survival": "inactive: 83%"}, {"smiles": "CCOC(=O)c1oc2ccc(S(=O)(=O)n3nc(-c4ccc(Br)cc4)cc3N)cc2c1C", "survival": "inactive: 78%"}, {"smiles": "O=C(Cc1ccccc1)NCCc1csc2nc(-c3ccc(Cl)cc3)nn12", "survival": "inactive: 71%"}, {"smiles": "O=C(Nc1cc(C(F)(F)F)ccc1Cl)c1cc(-c2ccc3c(c2)OCCO3)on1", "survival": "inactive: 116%"}, {"smiles": "COC(=O)c1cccnc1-n1c(=O)c2cccnc2n(CC(=O)Nc2ccc(C)cc2C)c1=O", "survival": "inactive: 81%"}, {"smiles": "O=C1S/C(=C/c2ccc3c(c2)OCO3)C(=O)N1CN1CCCCC1", "survival": "inactive: 80%"}, {"smiles": "Cc1ccc2c(c1)N(C(=O)CCC(=O)NCc1ccccc1Cl)CC(C)O2", "note": "(stereo not drawn)", "survival": "inactive: 68%"}, {"smiles": "CNC(=S)NC1CC2CCCC(C1)N2Cc1ccco1", "note": "(stereo not drawn)", "survival": "inactive: 80%"}, {"smiles": "COc1ccc(NC(=O)CSc2nnc(NC(=O)Nc3ccccc3)s2)cc1OC", "survival": "inactive: 86%"}, {"smiles": "CC(NC(=O)Cn1c(=O)oc2cc(S(=O)(=O)NCc3ccccc3)ccc21)c1ccccc1", "note": "(stereo not drawn)", "survival": "inactive: 78%"}, {"smiles": "Cc1ccccc1Nc1nc(-c2cccc(Cl)c2)c2c(n1)-c1ccccc1OC2", "survival": "inactive: 62%"}, {"smiles": "CC(=O)c1ccc(NC(=O)COc2ccccc2-c2nc(-c3cccc(C)c3)no2)cc1", "survival": "inactive: 57%"}, {"smiles": "COCCCNC(=O)c1ccc2c(c1)N(Cc1ccccc1)C(=O)c1ccccc1S2", "survival": "inactive: 64%"}, {"smiles": "O=C(CSc1nc(=O)n(CCN2CCOCC2)c2c1CCC2)Nc1ccccc1", "survival": "inactive: 75%"}, {"smiles": "COc1ccccc1CNC(=O)CCCn1c(=O)c2ccccc2n(CC(=O)Nc2c(C)cc(C)cc2C)c1=O", "survival": "inactive: 166%"}, {"smiles": "CCn1cc(C(=O)NCc2ccccc2Cl)c(=O)c2cc(S(=O)(=O)N3CCc4ccccc4C3)ccc21", "survival": "inactive: 74%"}, {"smiles": "CCCC(=O)Nc1cc(C)c(NC(=O)C23CC4CC(CC(C4)C2)C3)cn1", "survival": "inactive: 85%"}, {"smiles": "Cc1ccccc1C(=O)NC1(C(F)(F)F)C(=O)Nc2c1c(=O)[nH]c(=O)n2-c1ccc(F)cc1", "note": "(stereo not drawn)", "survival": "inactive: 144%"}, {"smiles": "COc1cccc(Cn2c(CNC(=O)c3cc([N+](=O)[O-])ccc3Cl)nc3cccnc32)c1", "survival": "inactive: 117%"}, {"smiles": "CN(C)/C=C(\\C#N)c1nc2ccccc2[nH]1", "survival": "inactive: 73%"}, {"smiles": "CCN(Cc1ccccc1)Cc1c(O)ccc2c(=O)c(-c3ccc(Cl)cc3Cl)coc12", "survival": "inactive: 68%"}, {"smiles": "Cc1noc(/C=C/c2cccs2)c1S(=O)(=O)N1CCC(C(=O)NCc2ccccc2Cl)CC1", "survival": "inactive: 82%"}, {"smiles": "CCOCCCNc1ncnc2onc(C)c12", "survival": "inactive: 79%"}, {"smiles": "Cc1ccc(Cl)cc1N1CCN(S(=O)(=O)c2ccc3c(c2)CC(C)N3C(=O)C2CCC2)CC1", "note": "(stereo not drawn)", "survival": "inactive: 107%"}, {"smiles": "CC(=O)c1ccc(NC(=O)c2sc(-n3nc(C)c(Cc4ccccc4)c3C)nc2C)cc1", "survival": "inactive: 67%"}, {"smiles": "Cc1cccc(NC(=O)Nc2nnc(N(C)Cc3ccccc3)s2)c1", "survival": "inactive: 81%"}, {"smiles": "COc1ccc(-c2nn3c(-c4ccccc4C)nnc3c3ccccc23)cc1", "survival": "active: 2%"}, {"smiles": "CN(C(=O)Cn1cc(S(=O)(=O)Cc2ccccc2Cl)c2ccccc21)c1ccccc1", "survival": "inactive: 124%"}, {"smiles": "CCOC(=O)c1cnc(SCC)[nH]c1=O", "survival": "active: 41%"}, {"smiles": "Cn1c(=O)c2c(ncn2CC(=O)Nc2cccc(Cl)c2Cl)n(C)c1=O", "survival": "inactive: 88%"}, {"smiles": "CNC(=O)C1CC(=O)N(Cc2ccc(F)cc2)C(=Nc2ccc(F)cc2)S1", "note": "(stereo not drawn)", "survival": "inactive: 73%"}]}]}
